# Assay results taken from PubChem BioAssay AID1745853 (National Center for Advancing Translational Sciences (NCATS), 2022).
# The other results are listed elsewhere or left out. Further columns of the screen follow, without active or inactive calls.
# Key:
# Assay in all cases: Primary Screen for Target Class Profiling of Small Molecule Inhibitors of Methyltransferases
# [1] = molecular target: Glycine N-methyltransferase (Homo sapiens) (UniProt Q14749); conditions: purified enzyme, MTase-Glo SAH luminescence; measured here: GNMT inhibition; at 40 µM; stronger effect = lower value
# Outline: (§1)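 Each enzyme was assayed with SAM and its substrate. SAH formation detected by MTase-Glo luminescence; single-point 40 uM screen[…].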
# [2] = molecular target: Guanidinoacetate N-methyltransferase (Homo sapiens) (UniProt Q14353); conditions: purified enzyme, MTase-Glo SAH luminescence; measured here: GAMT inhibition; at 40 µM; stronger effect = lower value
# Outline: as §1
# [3] = molecular target: Histamine N-methyltransferase (Homo sapiens) (UniProt P50135); conditions: purified enzyme, MTase-Glo SAH luminescence; measured here: HNMT inhibition; at 40 µM; stronger effect = lower value
# Outline: as §1
# [4] = molecular target: Nicotinamide N-methyltransferase (Homo sapiens) (UniProt P40261); conditions: purified enzyme, MTase-Glo SAH luminescence; measured here: NNMT inhibition; at 40 µM; stronger effect = lower value
# Outline: as §1
# [5] = molecular target: Phenylethanolamine N-methyltransferase (Homo sapiens) (UniProt P11086); conditions: purified enzyme, MTase-Glo SAH luminescence; measured here: PNMT inhibition; at 40 µM; stronger effect = lower value
# Outline: as §1
# % is set by controls: 0 for no effect and ±100 for the full control effect.
SMILES,"activity change, negative = inhibition [1] [%]","activity change, negative = inhibition [2] [%]","activity change, negative = inhibition [3] [%]","activity change, negative = inhibition [4] [%]","activity change, negative = inhibition [5] [%]"
Cn1c(C(=O)NCCN2CCCCC2)cc2c1CCN(Cc1cccc(F)c1)C2,-7.09,-2.6,-53.7,-9.9,-3.27
CN1C(=O)c2cc(C(=O)NCc3ccccc3)nn2CC1(C)C(=O)NCc1ccccc1 (stereo not given),5.39,0,4.39,-1.34,1.81
CC(C)NC(=O)c1ccc2c(=O)n(Cc3ccccc3)c3nn(CC(=O)NC(C)(C)C)c(=O)n3c2c1,2.81,0,9.93,2.76,4.74
COC(=O)C1C(c2ccc(O)cc2)C(C(=O)O)C1c1ccc(O)cc1 (stereo not given),3.67,-3.31,6.14,-13.4,-0.874
COc1ccc2cc3n(c2c1)CC(C)(C(=O)NCC1CCCO1)N(Cc1ccccc1F)C3=O (stereo not given),1.68,3.66,0.629,6.45,-0.663
Cc1ccccc1C(=O)N1C(C(=O)NCc2ccccc2)COC12CCN(C(=O)c1ccco1)CC2 (stereo not given),-6.6,-9.43,-8.27,-13,-8.52
O=C(CCn1c(=O)[nH]c2cc(S(=O)(=O)N3CCCCC3)ccc21)Nc1ccc(Cl)cc1,-33.8,1.84,-11.1,-20.8,-14.4
COCc1nc(CCNC(=O)NC2CCCCC2)no1,-1.85,-4.62,0.65,-6.96,11.4
CC(C)CNC(=O)c1ccc2c(=O)n(CC(C)C)c3nn(CC(=O)c4cccc(Cl)c4)c(=O)n3c2c1,3,0,9.33,-4.31,3.74
CC1CCC(NC(=O)C2(C)Cn3c(cc4sccc43)C(=O)N2C2CCCCC2)CC1 (stereo not given),-9.56,-0.299,-8.96,-11.4,-11.1
CCOc1ccc(N2C(=O)c3cc(-c4ccc(OC)cc4)nn3CC2(C)C(=O)NCc2ccccc2)cc1 (stereo not given),3.77,0,1.73,7.38,-2.81
CCOC(=O)c1cc2n(n1)CC(C)(C(=O)NCc1ccc(C)cc1)N(CCc1ccc(SC)cc1)C2=O (stereo not given),-0.154,1.39,-2.82,-1.1,-1.39
CCCC(=O)O[C@@H]1[C@@H]2[C@@H](OC(C)=O)[C@]3(C)C(=O)[C@H]4[C@@H](OC(C)=O)C(C)(C)C[C@H]4[C@]3(C)C(=O)[C@@]2(OC(C)=O)C[C@@H]1C,0.68,-8.76,3.98,-19.3,-2.51
COc1ccc(-c2nc(N3CCOCC3)cc3c2CN(Cc2ccccc2)C3=O)cn1,-9.51,-0.362,-1.81,-8.32,-2.87
COc1ccc(NC(=O)N2CCCC(CN3CCC(C)CC3)CC2)cc1 (stereo not given),0.887,3.38,-7.59,-5.36,13.9
COc1ccc(CN2C(=O)c3cc4ccccc4n3CC2(C)C(=O)NC2CCCCC2)cc1 (stereo not given),-3.98,0,0.541,-2.62,-3.57
COc1ccc(-c2cc3n(n2)CC(C)(C(=O)NCc2ccccc2OC)N(Cc2cccc(C)c2)C3=O)cc1 (stereo not given),5.79,0,5.01,3.15,-1.12
